# Results: PubChem BioAssay AID540317 (National Center for Advancing Translational Sciences (NCATS), 2011)
# Out of some 390,000 compounds screened, about 2,200 (0.56%) were called active. This list was built around the results that the source calls inconclusive (neither active nor inactive); the mix of calls is not that of the screen. Calls come from the whole dose curve; as a rule, active = well fitted inhibition curve with a large enough effect; inconclusive = small, poorly fitted or top-dose-only effect; inactive = no such curve, though single readings can be large or run the other way. Potencies of inconclusive entries are doubtful fits and often do not repeat.
# Target: Chromobox protein homolog 1 (Homo sapiens) (UniProt P83916)
# Chain of UniProt P83916 (P83916 whole entry, looked up): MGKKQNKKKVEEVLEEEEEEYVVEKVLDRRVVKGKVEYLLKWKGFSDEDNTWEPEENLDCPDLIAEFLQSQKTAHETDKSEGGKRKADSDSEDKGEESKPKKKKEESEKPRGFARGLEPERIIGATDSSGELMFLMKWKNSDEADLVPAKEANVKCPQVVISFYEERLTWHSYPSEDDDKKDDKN
# Experiment: HTS for Inhibitors of HP1-beta Chromodomain Interactions with Methylated Histone Tails; note: nearly all actives have a fitted effect of over 70% in size
# Conditions: AlphaScreen HP1-beta / biotin-H3K9me3 peptide binding; series mostly up to 114 µM; activity change, negative = inhibition: at the top concentration
# Outline: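 HP1-beta protein (50 nM final) preincubated 30 min at room temperature with biotinylated H3(1-18)K9me3 peptide (50 nM) in PBS pH 7.4, 0.01% Tween-20, then compound added for 30 min. AlphaScreen streptavidin donor/nickel chelate acceptor beads (10 ug/mL final), 30 min dark, luminescence read.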
# Potency is the fitted concentration of half-maximal effect; tags give direction and shape of the fitted curve.
SMILES,"activity change, negative = inhibition",Potency
CCCCN(CC)CCNC(=O)CCn1cnc2onc(-c3ccc(F)cc3)c2c1=O,inactive: -9.47%,–
CCOc1cc(C(=S)N2CCCC2)ccc1O,–,"inconclusive: 25.1 µM [inhibitor, full curve]"
CCOc1ccc2ncc(S(=O)(=O)c3ccccc3)c(N3CCN(c4ccc(OC)cc4)CC3)c2c1,–,"inconclusive: 17.8 µM [inhibitor, partial curve, poor fit]"
Cc1cc(S(=O)(=O)ON2C(=O)c3ccccc3C2=O)ccc1F,–,"inconclusive: 20 µM [inhibitor, full curve]"
NC(=S)N=Nc1ccc(O)cc1,–,"inconclusive: 50.1 µM [inhibitor, partial curve, poor fit]"
COc1ccc2nc(N3C(=O)/C(=C/c4ccccc4)NC3=S)sc2c1,inactive: 10.2%,–
O=C(NCCc1ccco1)C(=O)NCC1CCCN1S(=O)(=O)c1ccccc1 (stereo not drawn),–,"inconclusive: 89.1 µM [inhibitor, partial curve, poor fit]"
COc1ccc(OC)c(NCc2cccn2-c2nnc(N3CCCCC3)s2)c1,–,"inconclusive: 50.1 µM [inhibitor, partial curve]"
COc1ccc2[nH]c(=O)c(CN(Cc3cccs3)S(=O)(=O)c3c(C)ccc4nsnc34)cc2c1,–,"inconclusive: 35.5 µM [inhibitor, partial curve, poor fit]"
COC(=O)/C(=C\C(=O)c1ccccc1)Nc1ccc(OC)cc1,–,"inconclusive: 25.1 µM [inhibitor, full curve]"
CCOC(=O)c1cc(-c2c(Cl)cccc2Cl)no1,inactive: 95.5%,–
CC(=O)Nc1nc(-c2ccc3c(c2)CC(C)N3C(=O)C2CC2)c(C)s1 (stereo not drawn),–,"inconclusive: 44.7 µM [inhibitor, partial curve, poor fit]"
O=C(NNC(=O)C1CCN(S(=O)(=O)c2ccc(Cl)cc2)CC1)c1ccccc1,inactive: 39%,–
COC(=O)c1sccc1NC(=S)N1C(C)CCCC1C (stereo not drawn),inactive: 40.8%,–
CC(C)(C)Nc1c2ccccc2nc2ccccc12,inactive: 42.9%,–
COc1ccc(OC)c(CNC(=O)c2ccc(C)c(NC(=O)c3nsc4ccccc34)c2)c1,inactive: 20.4% [at 57 µM],–
CCC1S/C(=N/N=C/c2ccco2)N(Cc2ccccc2)C1=O (stereo not drawn),–,"inconclusive: 44.7 µM [inhibitor, partial curve, poor fit]"
Cn1c(SCC(=O)c2ccccc2)nnc1-c1cnccn1,–,"inconclusive: 56.2 µM [inhibitor, single point]"
CCCCN1CC(COCc2ccccc2)Oc2ccccc2S1(=O)=O (stereo not drawn),inactive: 80%,–
O=S(=O)(/N=S1\CC=CCN1S(=O)(=O)c1ccccc1)c1ccccc1 (stereo not drawn),–,"inconclusive: 12.6 µM [inhibitor, partial curve, poor fit]"
Cc1ccc(CN=c2c([N+](=O)[O-])nn(-c3ccc4c(c3)OCCO4)n2O)cc1,–,"inconclusive: 39.8 µM [inhibitor, partial curve]"
CCN1CCN(C(=S)c2ccc(Br)cc2)CC1,–,"inconclusive: 15.8 µM [inhibitor, full curve]"

SMILES,"activity change, negative = inhibition",Potency
CCOC(=O)C1CCN(S(=O)(=O)c2ccc3[nH]c4c(c3c2)CCCC4)CC1,–,"inconclusive: 20 µM [inhibitor, full curve]"
CC(C)N1CCN(C(=O)c2cccc(Cl)c2)CC1,–,"inconclusive: 22.4 µM [inhibitor, full curve]"
CN(C)CCCCOc1ccccc1F,–,"inconclusive: 14.1 µM [inhibitor, full curve, poor fit]"
CC1CN(C(=O)N2CCC(C(=O)NCc3cccs3)CC2)c2cc(Cl)ccc2O1 (stereo not drawn),–,"inconclusive: 39.8 µM [inhibitor, partial curve]"
O=[N+]([O-])c1ccc(N/N=C2\CC3CC=CC23)c([N+](=O)[O-])c1 (stereo not drawn),–,active: 14.1 µM
CCCN(CC(=O)Nc1ccccc1OC)C(=O)c1ccc2[nH]c3c(c2c1)CC(C)CC3 (stereo not drawn),–,"inconclusive: 39.8 µM [inhibitor, single point]"
CC(Nc1ccc([N+](=O)[O-])cc1[N+](=O)[O-])c1ccccc1 (stereo not drawn),–,"inconclusive: 50.1 µM [inhibitor, partial curve]"
CCOc1ccc(NC(=O)CSc2nnc(Cc3cccn3C)n2-c2ccc(OC)cc2)cc1,–,"inconclusive: 31.6 µM [inhibitor, partial curve, poor fit]"
COc1ccc(OCC(=O)Nc2c(C(=O)N(CCN(C)C)Cc3ccco3)oc3ccccc23)cc1,–,"inconclusive: 70.8 µM [inhibitor, partial curve]"
O=C1/C(=C\c2ccco2)NC(=S)N1c1ccccc1,–,"inconclusive: 44.7 µM [inhibitor, partial curve]"
O=C(NC(=S)Nc1ccccc1[N+](=O)[O-])c1ccccc1Cl,–,"inconclusive: 39.8 µM [inhibitor, partial curve, poor fit]"
COc1cccc(C=Nc2cc(C(C)C)c(O)cc2C)c1O,–,active: 79.4 µM
C=CCc1cc(C)ccc1OCCOCCN1CCN(C)CC1,–,"inconclusive: 28.2 µM [inhibitor, single point]"
Cn1cccc1/C=N/NC(=O)c1cc(-c2cccs2)nc2ccccc12,–,"inconclusive: 35.5 µM [inhibitor, single point]"
COc1ccc(NC(=O)CN(C)C(=O)c2cc(-c3ccco3)nc3ccccc23)cc1,–,active: 44.7 µM
CN(C)CCCOc1cccc(Oc2ccccc2)c1,–,"inconclusive: 22.4 µM [inhibitor, full curve]"
O=[N+]([O-])c1ccc(NC(=S)NCCc2ccccc2)cc1,–,"inconclusive: 17.8 µM [inhibitor, full curve]"
Nc1ccc(Nc2ccccc2N)cc1,–,"inconclusive: 44.7 µM [inhibitor, partial curve]"
CC1=NN(c2ccc(Br)cc2)C(=O)/C1=C/c1ccc(-c2ccccc2C(=O)O)o1,–,"inconclusive: 17.8 µM [inhibitor, full curve]"
O=C(O)c1ccccc1-c1c2cc(I)c(=O)c(I)c-2oc2c(I)c(O)c(I)cc12,–,"inconclusive: 6.31 µM [inhibitor, full curve, poor fit]"
O=[N+]([O-])c1nn(-c2ccccc2)n(O)c1=NCCc1ccccc1,–,"inconclusive: 56.2 µM [inhibitor, single point]"
